Assay results from PMC12657730.
Results are given in words; binding and its absence hold for the method and conditions named. In cells and extracts the contact can be indirect. Some results given as binding are weak or reduced against the parent protein; the word gives no strength. For some assays here: Where a sequence is shown, tags or fusion partners need not be part of it.

Sequences of proteins named here, by UniProt entry; tags and fusion partners are left off.
UniProt Q06330: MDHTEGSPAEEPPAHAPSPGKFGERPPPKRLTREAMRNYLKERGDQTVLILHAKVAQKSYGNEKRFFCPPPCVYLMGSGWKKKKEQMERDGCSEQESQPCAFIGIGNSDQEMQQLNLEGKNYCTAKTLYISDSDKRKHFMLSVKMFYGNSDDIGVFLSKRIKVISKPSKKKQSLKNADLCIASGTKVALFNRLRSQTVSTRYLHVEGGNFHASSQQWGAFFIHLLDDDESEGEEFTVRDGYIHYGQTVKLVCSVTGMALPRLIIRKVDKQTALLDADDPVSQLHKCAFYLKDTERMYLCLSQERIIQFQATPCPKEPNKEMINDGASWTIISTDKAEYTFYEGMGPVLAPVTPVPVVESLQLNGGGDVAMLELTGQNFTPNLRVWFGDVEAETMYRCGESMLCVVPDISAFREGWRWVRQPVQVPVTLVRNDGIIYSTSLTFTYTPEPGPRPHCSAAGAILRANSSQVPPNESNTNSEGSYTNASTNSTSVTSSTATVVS
UniProt Q92830: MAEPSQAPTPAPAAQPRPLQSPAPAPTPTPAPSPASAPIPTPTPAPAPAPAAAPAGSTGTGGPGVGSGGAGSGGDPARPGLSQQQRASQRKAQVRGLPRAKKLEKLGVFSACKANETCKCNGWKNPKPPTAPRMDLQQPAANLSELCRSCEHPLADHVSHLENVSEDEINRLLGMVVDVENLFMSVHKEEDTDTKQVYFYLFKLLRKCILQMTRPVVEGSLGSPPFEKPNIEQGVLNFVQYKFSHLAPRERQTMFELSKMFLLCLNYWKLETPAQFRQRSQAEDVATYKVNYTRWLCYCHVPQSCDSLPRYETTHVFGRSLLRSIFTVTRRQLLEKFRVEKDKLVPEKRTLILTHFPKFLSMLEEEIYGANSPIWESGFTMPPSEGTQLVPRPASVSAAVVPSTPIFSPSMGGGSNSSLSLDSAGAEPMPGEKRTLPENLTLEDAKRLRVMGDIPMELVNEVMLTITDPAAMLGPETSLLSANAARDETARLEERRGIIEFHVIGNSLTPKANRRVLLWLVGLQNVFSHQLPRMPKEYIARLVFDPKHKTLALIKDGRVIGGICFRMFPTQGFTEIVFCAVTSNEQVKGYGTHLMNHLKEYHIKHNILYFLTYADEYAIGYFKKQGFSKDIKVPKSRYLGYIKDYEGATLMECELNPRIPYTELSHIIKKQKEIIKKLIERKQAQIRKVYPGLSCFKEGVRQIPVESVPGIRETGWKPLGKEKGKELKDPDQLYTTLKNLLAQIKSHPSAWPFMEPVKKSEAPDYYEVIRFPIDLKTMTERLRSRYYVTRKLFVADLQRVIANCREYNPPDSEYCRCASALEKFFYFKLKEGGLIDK
UniProt Q92585: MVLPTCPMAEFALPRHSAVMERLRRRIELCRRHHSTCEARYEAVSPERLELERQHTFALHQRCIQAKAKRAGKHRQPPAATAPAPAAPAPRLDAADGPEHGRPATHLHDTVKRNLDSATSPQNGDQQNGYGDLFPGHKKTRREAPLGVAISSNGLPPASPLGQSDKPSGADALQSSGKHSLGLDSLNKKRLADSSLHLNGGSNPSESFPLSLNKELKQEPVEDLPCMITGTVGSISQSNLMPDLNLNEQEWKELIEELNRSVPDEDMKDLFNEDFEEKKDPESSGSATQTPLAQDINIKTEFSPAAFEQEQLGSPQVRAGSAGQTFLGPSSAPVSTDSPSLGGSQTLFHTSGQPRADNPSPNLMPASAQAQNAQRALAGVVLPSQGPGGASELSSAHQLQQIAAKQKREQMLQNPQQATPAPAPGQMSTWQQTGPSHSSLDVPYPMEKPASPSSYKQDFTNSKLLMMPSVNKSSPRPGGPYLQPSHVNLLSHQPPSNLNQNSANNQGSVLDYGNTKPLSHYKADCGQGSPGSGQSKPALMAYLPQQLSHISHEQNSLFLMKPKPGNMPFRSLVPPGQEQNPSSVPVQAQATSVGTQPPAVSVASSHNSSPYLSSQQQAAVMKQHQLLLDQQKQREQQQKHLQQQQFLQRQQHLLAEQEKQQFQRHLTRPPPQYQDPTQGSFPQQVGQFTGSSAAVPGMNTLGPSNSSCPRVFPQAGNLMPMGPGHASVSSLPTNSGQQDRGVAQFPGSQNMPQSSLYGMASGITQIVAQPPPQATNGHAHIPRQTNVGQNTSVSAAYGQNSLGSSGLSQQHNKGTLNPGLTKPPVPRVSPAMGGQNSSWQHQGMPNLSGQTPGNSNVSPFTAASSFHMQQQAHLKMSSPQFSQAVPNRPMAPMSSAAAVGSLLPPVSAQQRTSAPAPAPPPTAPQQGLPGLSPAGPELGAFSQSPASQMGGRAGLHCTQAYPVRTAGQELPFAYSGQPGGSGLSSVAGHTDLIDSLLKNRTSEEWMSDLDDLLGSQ
UniProt Q9NXV2: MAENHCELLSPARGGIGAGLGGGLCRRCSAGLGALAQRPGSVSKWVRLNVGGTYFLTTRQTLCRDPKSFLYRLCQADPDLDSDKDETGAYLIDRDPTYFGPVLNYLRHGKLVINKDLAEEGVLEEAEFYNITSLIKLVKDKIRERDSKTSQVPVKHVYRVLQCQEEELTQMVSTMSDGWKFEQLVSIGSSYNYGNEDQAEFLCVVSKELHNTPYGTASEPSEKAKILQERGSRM
UniProt Q86X95: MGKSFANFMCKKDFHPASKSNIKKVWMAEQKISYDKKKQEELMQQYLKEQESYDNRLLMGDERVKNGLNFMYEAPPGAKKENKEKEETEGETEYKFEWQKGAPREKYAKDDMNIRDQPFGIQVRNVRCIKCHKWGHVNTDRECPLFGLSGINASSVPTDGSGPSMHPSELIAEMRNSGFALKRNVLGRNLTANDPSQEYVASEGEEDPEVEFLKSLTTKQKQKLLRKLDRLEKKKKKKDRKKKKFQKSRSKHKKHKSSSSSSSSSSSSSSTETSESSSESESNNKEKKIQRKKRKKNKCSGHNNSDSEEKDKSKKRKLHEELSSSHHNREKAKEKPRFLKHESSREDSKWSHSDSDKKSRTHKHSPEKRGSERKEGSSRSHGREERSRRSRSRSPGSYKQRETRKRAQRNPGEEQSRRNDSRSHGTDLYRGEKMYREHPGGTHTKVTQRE

T1: KCTD1-mVenus (human) (UniProt Q719H9)
T1 sequence: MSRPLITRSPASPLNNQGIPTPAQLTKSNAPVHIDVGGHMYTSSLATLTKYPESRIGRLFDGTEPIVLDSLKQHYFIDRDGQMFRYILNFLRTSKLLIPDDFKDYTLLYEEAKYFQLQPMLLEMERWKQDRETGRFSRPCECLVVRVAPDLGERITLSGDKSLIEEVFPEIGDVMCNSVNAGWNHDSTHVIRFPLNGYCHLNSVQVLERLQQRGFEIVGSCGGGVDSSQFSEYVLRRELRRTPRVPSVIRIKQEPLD

T2: Fluc-KCTD1-flag (human) (UniProt Q719H9)
T2 sequence: T1 sequence

B1: RITA1-Nluc (protein, UniProt Q96K30 1-269)
chain: MKTPVELAVSGMQTLGLQHRCRGGYRVKARTSYVDETLFGSPAGTRPTPPDFDPPWVEKANRTRGVGKEASKALGAKGSCETTPSRGSTPTLTPRKKNKYRPISHTPSYCDESLFGSRSEGASFGAPRMAKGDAAKLRALLWTPPPTPRGSHSPRPREAPLRAIHPAGPSKTEPGPAADSQKLSMGGLHSSRPLKRGLSHSLTHLNVPSTGHPATSAPHTNGPQDLRPSTSGVTFRSPLVTSRARSVSISVPSTPRRGGATQKPKPPWK
B2: SKIP-Nluc (protein, UniProt Q13573 1-536)
chain: MALTSFLPAPTQLSQDQLEAEEKARSQRSRQTSLVSSRREPPPYGYRKGWIPRLLEDFGDGGAFPEIHVAQYPLDMGRKKKMSNALAIQVDSEGKIKYDAIARQGQSKDKVIYSKYTDLVPKEVMNADDPDLQRPDEEAIKEITEKTRVALEKSVSQKVAAAMPVRAADKLAPAQYIRYTPSQQGVAFNSGAKQRVIRMVEMQKDPMEPPRFKINKKIPRGPPSPPAPVMHSPSRKMTVKEQQEWKIPPCISNWKNAKGYTIPLDKRLAADGRGLQTVHINENFAKLAEALYIADRKAREAVEMRAQVERKMAQKEKEKHEEKLREMAQKARERRAGIKTHVEKEDGEARERDEIRHDRRKERQHDRNLSRAAPDKRSKLQRNENRDISEVIALGVPNPRTSNEVQYDQRLFNQSKGMDSGFAGGEDEIYNVYDQAWRGGKDMAQSIYRPSKNLDKDMYGDDLEARIKTNRFVPDKEFSGSDRRQRGREGPVQFEEDPFGLDKFLEEAKQHGGSKRPSDSSRPKEHEHEGKKRRKE

Each molecule was assayed against T1, KCTD1-mVenus (human) (assay: co-IP; lysate of HEK293 cells transfected with HA-RBPJ and KCTD1-mVenus; IP with anti-GFP antibody and Dynabeads Protein G, 1 h, 4 °C; Western blot with anti-HA).

| Molecule | binding |
| --- | --- |
| HA-RBPJ (from UniProt Q06330 1-500) | binds |

What follows are molecules tested against T2, Fluc-KCTD1-flag (human) (assay: co-IP; IP-luminescence: lysate of HEK293 cells cotransfected with Fluc-KCTD1-flag and an Nluc-tagged protein; 300 μg lysate with anti-DYKDDDDK magnetic agarose, 2 h, 4 °C; PBS with 1% Triton X-100, 150 mM NaCl, 5 mM MgCl2; read-out Nluc and Fluc luminescence of IP and total lysate).

| Molecule | binding |
| --- | --- |
| KAT2A-Nluc (from UniProt Q92830 1-837) | no binding |
| MAML1-Nluc (from UniProt Q92585 1-1016) | no binding |
| KCTD5-Nluc (from UniProt Q9NXV2 1-234) | binds |
| Nluc-RBPJ (from UniProt Q06330 1-500) | binds |
| CIR1-Nluc (from UniProt Q86X95 1-450) | no binding |
| B1 | no binding |
| B2 | no binding |
